Hit rate of the full screen: of about 350,000 compounds, about 9,900 (2.8%) were called active. This list was built around the results that the source calls inconclusive (neither active nor inactive); the mix of calls is not that of the screen. Calls follow the shape of the dose curve; as a rule, active = well fitted activation curve with a large enough effect; inconclusive = small, poorly fitted or top-dose-only effect; inactive = no such curve, though single readings can be large or run the other way. No potency is given beside an inconclusive call; the fits are too rough.
Experiment: A quantitative high throughput screen for small molecules that induce DNA re-replication in MCF 10a normal breast cells. Also: nearly all actives have a fitted effect of over 50% in size.
Settings: MCF 10A DNA re-replication, Hoechst nuclear intensity, 48 h; series mostly up to 46.1 µM
Potency is read from the fitted curve at half-maximal effect; tags tell the direction and shape of the fitted curve.

Compound	Potency
Cc1c(CCO)c(=O)n(-c2ccccc2)n1S(=O)(=O)c1c(Cl)cc(Cl)cc1Cl	inconclusive [activator, single point]
COCCn1c(C)cc(C(=O)CSc2nc(C)nc3sc4c(c23)CCC4)c1C	inconclusive [activator, full curve, poor fit]
Cc1cc(N2CCN(C(=O)c3ccco3)CC2)nc(-c2ccccc2)n1	inconclusive [activator, single point]
Cc1ccnc(NC(=O)Cc2ccc([N+](=O)[O-])cc2)c1	inactive
O=C(CSCc1ccc(Br)cc1)N1CCCC1	inconclusive [activator, partial curve, poor fit]
Cc1c(C(=O)N(C)CC(=O)Nc2cccc(F)c2)oc2c(Cl)cccc12	inconclusive [activator, partial curve, poor fit]
COc1ccc(CCNC(=O)c2cc(-c3ccco3)on2)cc1OC	inactive
COc1ccc(Br)cc1/C(C)=N/NC1=NCCN1	inconclusive [activator, single point]
O=c1[nH]c2ccccc2nc1/C=C/c1ccc(F)cc1	active: 6.51 µM
CC(/C=N/Nc1nc(N2CCCCC2)nc(N2CCCCC2)n1)=C\c1ccccc1	inactive
O=C(CSc1nnc(NC(=O)Cc2ccc(F)cc2)s1)NCc1ccco1	inactive
O=C(N/C=C/c1ccccc1)Nc1ccc(Cl)cc1	inconclusive [activator, partial curve, poor fit]
Cc1ccc(CNCCCSc2nc(C)cc(C)n2)cc1	inconclusive [activator, single point]
COc1cccc(C(=O)Nc2ccc(C(=O)c3ccccc3)cc2)c1	inactive
COc1ccc2cc(CO)n(C)c2c1	inconclusive [activator, single point]
CN(CC(=O)Nc1ccc(Cl)c(Cl)c1)C(=O)CNC(=O)C1CCCCC1	inactive
COc1ccc(-c2noc(CCC(=O)NC3CCCCC3)n2)cc1	inactive
Oc1ccc(/C=N/Nc2ccc3ccccc3c2)c(O)c1	inconclusive [activator, single point]
CCCc1[nH]c2ccc(C#N)cc2c1CCC	inconclusive [activator, single point]
N#CCCN(C(=O)COc1ccc(F)cc1Br)c1ccccc1F	inconclusive [activator, partial curve, poor fit]
Cc1cccc(C)c1NC(=O)c1cnn(-c2ccccc2)c1C	inactive
CNC(=O)c1ccc(CNC(=O)OCc2ccccc2)cc1	inactive
CC(C)(C)c1ccc(C(=O)Nc2ccc(Oc3cccnc3)nc2)cc1	inactive
Cc1cc(OCc2cc(C(=O)N(Cc3nccn3C)C(C)C)no2)cc(C)c1Cl	inconclusive [activator, single point]

Compound	Potency
CN1CCN(c2ccccc2NC(=O)c2cc(Br)ccc2Cl)CC1	inactive
O=C(NC(=S)N1CCN(c2ccc(O)cc2)CC1)c1cccs1	inconclusive [activator, single point]
OCC1(CCc2ccccc2)CCN(Cc2cc(Cl)ccc2O)CC1	inconclusive [activator, partial curve]
COc1cc(F)ccc1CN1CCC(C(=O)Nc2ccc(Oc3ccccc3)nc2)CC1	inactive
Cn1cnc([N+](=O)[O-])c1Oc1cccc(O)c1	inconclusive [activator, single point]
N#Cc1ccccc1CSc1ccccn1	inconclusive [activator, partial curve, poor fit]
O=C(COC(=O)c1cc(S(=O)(=O)Nc2ccccc2Cl)ccc1O)Nc1nc2ccccc2s1	inconclusive [activator, single point]
COc1ccc(NC(=O)c2ccc(-c3ccc(-c4noc(C)n4)cc3C)cc2)cc1N1CCN(C)CC1	inconclusive [activator, full curve, poor fit]
CCOc1ncccc1C(=O)N(C)CC(=O)Nc1ccc(F)cc1	inconclusive [activator, single point]
O=c1c(Br)c(Br)cnn1-c1ccccc1	inconclusive [activator, partial curve, poor fit]
COc1ccc(CCNC(=O)CC2Nc3ccccc3NC2=O)cc1OC (stereo not given)	inconclusive [activator, partial curve, poor fit]
COc1ccccc1CCNC(=O)C(=O)NCC1CCCN1S(=O)(=O)c1ccccc1 (stereo not given)	inconclusive [activator, single point]
O=C(NCCC(=O)N1CCN(c2cccc(Cl)c2)CC1)c1ccc(Br)cc1	inconclusive [activator, full curve, poor fit]
CC(c1ccccc1)N1CCC(CNC(=S)Nc2cccc(Cl)c2)C1 (stereo not given)	inconclusive [activator, single point]
COc1cc2ccccc2cc1C(=O)N1CCN(C)CC1	inconclusive [activator, single point]
Cc1nn(Cc2ccc(C(=O)NN)o2)c(C)c1Cl	inconclusive [activator, full curve, poor fit]
COC(CNC(=O)c1ccc2c(c1)ncn2-c1cccc(C)c1)OC	inactive
O=C1NC2(C=Cc3c(ccc4ccccc34)O2)Oc2ccccc21 (stereo not given)	inconclusive [activator, single point]
Cc1ccc(S(=O)(=O)N2CCOC2CNC(=O)C(=O)NCCN(C)C)cc1 (stereo not given)	inactive
CN1CCN(C(=S)NC(=O)/C=C/c2cccs2)CC1	inactive
Cc1[nH]c2c(C)cccc2c1CCNC(=O)c1ccc2c(c1[N+](=O)[O-])C(=O)c1ccccc1C2=O	active: 7.94 µM
Cc1ccc2c(c1)N(CC(=O)N1CCC(C)CC1)C(=O)c1cccnc1O2	inconclusive [activator, single point]
CC(C)CCNc1nc2c(cc1C#N)COC(C)(C)C2	inconclusive [activator, single point]
CCOC(=O)c1[nH]c2ccc(Cl)cc2c1NC(=O)/C=C/c1ccc2c(c1)OCO2	inconclusive [activator, full curve, poor fit]

Compound	Potency
C[C@H](CO)N1C[C@H](C)[C@@H](CN(C)S(=O)(=O)c2ccc(F)cc2)Oc2ccc(NS(=O)(=O)c3cccs3)cc2C1=O	inactive
O=C(OCc1ccccc1)N1CCC2CC1c1c(Cl)cccc12 (stereo not given)	inconclusive [activator, single point]
COCCSc1ccccc1C(=O)N1CCc2ccccc21	inconclusive [activator, single point]
Cc1ccc2nc(NC(=O)CCNS(=O)(=O)c3cccs3)sc2c1	inconclusive [activator, single point]
CCN1CCN(c2cc(C)c3cc(NC(=S)N(C)Cc4ccccc4)ccc3n2)CC1	inconclusive [activator, partial curve]
COC(=O)C1=C(Nc2ccc(OC)cc2)C=C(C)C(C(=O)OC)C1c1ccc(C)cc1 (stereo not given)	inconclusive [activator, partial curve, poor fit]
O=C(CSc1nc(=O)n(CCN2CCOCC2)c2c1CCC2)Nc1ccc(OC(F)(F)F)cc1	inconclusive [activator, partial curve, poor fit]
Cc1cccc(CS(=O)(=O)Cc2ccc(C(=O)NCc3ccccc3)o2)c1	inconclusive [activator, single point]
Cc1cc(N2CCOCC2)nc2ccc(NC(=S)N3CCN(Cc4ccccc4)CC3)cc12	inconclusive [activator, single point]
CCCSc1cc(N)cc([N+](=O)[O-])c1	inactive
CC(Cc1ccccc1)N1C(=O)c2cccc([N+](=O)[O-])c2C1=O (stereo not given)	inactive
O=c1c2ccccc2nc(CSc2nnnn2-c2ccccc2)n1-c1ccccc1Cl	inconclusive [activator, single point]
Cc1ccc(S(=O)(=O)N2CCCCC2)cc1C(=O)N1C(C)CCCC1C (stereo not given)	inconclusive [activator, partial curve, poor fit]
COc1ccccc1-c1cccc([C@@H]2C[C@H]3[C@H](CON3C)CN2Cc2ccccc2)c1	inconclusive [activator, partial curve, poor fit]
O=C(CCNC(=O)c1ccccc1Cl)Nc1nc2ccccc2[nH]1	inactive
O=C(NC1CS(=O)(=O)CC1NCc1ccco1)c1ccccc1 (stereo not given)	inconclusive [activator, single point]
COc1cccc(OCc2cc(C(=O)N3CCN(c4ccccc4O)CC3)no2)c1	inconclusive [activator, single point]
CC(=O)Nc1cccc(N2CCCC2=O)c1	inconclusive [activator, partial curve, poor fit]
COc1ccc(S(=O)(=O)Nc2cccc(S(=O)(=O)N3CCCCCC3)c2)cc1	inactive
Cc1oc2ccc(O)cc2c1C(=O)c1ccc(F)cc1	inactive
O=C(NCc1ccccc1)C1=C[C@H](c2ccc(C(F)(F)F)cc2)C[C@H](OCCCCO)O1	inconclusive [activator, partial curve, poor fit]
CC(=O)Oc1ccc(OC(C)=O)c2c1C1C=CC2CC1	active: 10.3 µM
